Laboratory results from the supplement of paper PMC8728848.
The other results are listed elsewhere or left out.

What was measured:
Assay in all cases: glycan array binding signal (z-score within array); higher = stronger binding
Settings in all cases: glycan notation: IUPAC condensed, linker removed
[1] = target: Fuc(a1-2)Gal
How it was run: (§1)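 Negative Z-scores can be read as non-binding. The Z-score is calculated within each array and then averaged across arrays of one protein sequence at different concentrations or buffers and across linkers. Arrays, 3228 in all, were curated from the Consortium for Functional Glycomics database and kept only where the protein sequence was available.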

[2] = target: Fuc(a1-2)Gal(b1-3)GalNAc
How it was run: as §1

[3] = target: Fuc(a1-2)Gal(b1-3)GalNAc(b1-3)Gal
How it was run: as §1

[4] = target: Fuc(a1-2)Gal(b1-3)GalNAc(b1-3)Gal(a1-4)Gal(b1-4)Glc
How it was run: as §1

[5] = target: Fuc(a1-2)Gal(b1-3)GalNAc(b1-4)[Neu5Ac(a2-3)]Gal(b1-4)Glc
How it was run: as §1

[6] = target: Fuc(a1-2)Gal(b1-3)GlcNAc
How it was run: as §1

[7] = target: Fuc(a1-2)Gal(b1-3)GlcNAc(b1-3)Gal(b1-4)Glc
How it was run: as §1

[8] = target: Fuc(a1-2)Gal(b1-3)[Fuc(a1-4)]GlcNAc
How it was run: as §1

[9] = target: Fuc(a1-2)Gal(b1-4)Glc
How it was run: as §1

[10] = target: Fuc(a1-2)Gal(b1-4)GlcNAc
How it was run: as §1

[11] = target: Fuc(a1-2)Gal(b1-4)GlcNAc(b1-3)Gal(b1-4)GlcNAc
How it was run: as §1

[12] = target: Fuc(a1-2)Gal(b1-4)GlcNAc(b1-3)Gal(b1-4)GlcNAc(b1-3)Gal(b1-4)GlcNAc
How it was run: as §1

[13] = target: Fuc(a1-2)Gal(b1-4)[Fuc(a1-3)]GlcNAc
How it was run: as §1

[14] = target: Fuc(a1-2)Gal(b1-4)[Fuc(a1-3)]GlcNAc(b1-3)Gal(b1-4)[Fuc(a1-3)]GlcNAc
How it was run: as §1

[15] = target: Fuc(a1-2)Gal(b1-4)[Fuc(a1-3)]GlcNAc(b1-3)Gal(b1-4)[Fuc(a1-3)]GlcNAc(b1-3)Gal(b1-4)[Fuc(a1-3)]GlcNAc
How it was run: as §1

[16] = target: Fuc(a1-2)GlcNAc
How it was run: as §1

[17] = target: Fuc(a1-2)[Gal(a1-3)]Gal
How it was run: as §1

[18] = target: Fuc(a1-2)[Gal(a1-3)]Gal(b1-3)GlcNAc
How it was run: as §1

[19] = target: Fuc(a1-2)[Gal(a1-3)]Gal(b1-4)Glc
How it was run: as §1

[20] = target: Fuc(a1-2)[Gal(a1-3)]Gal(b1-4)GlcNAc
How it was run: as §1

[21] = target: Fuc(a1-2)[Gal(a1-3)]Gal(b1-4)[Fuc(a1-3)]GlcNAc
How it was run: as §1

[22] = target: Fuc(a1-2)[Gal(a1-4)]Gal(b1-4)GlcNAc
How it was run: as §1

[23] = target: Fuc(a1-2)[GalNAc(a1-3)]Gal
How it was run: as §1

[24] = target: Fuc(a1-2)[GalNAc(a1-3)]Gal(b1-3)GlcNAc
How it was run: as §1

[25] = target: Fuc(a1-2)[GalNAc(a1-3)]Gal(b1-4)Glc
How it was run: as §1

[26] = target: Fuc(a1-2)[GalNAc(a1-3)]Gal(b1-4)GlcNAc
How it was run: as §1

[27] = target: Fuc(a1-2)[GalNAc(a1-3)]Gal(b1-4)[Fuc(a1-3)]GlcNAc
How it was run: as §1

[28] = target: Fuc(a1-2)[GalNAc(a1-4)]Gal(b1-4)GlcNAc
How it was run: as §1

[29] = target: Fuc(a1-2)[GalNAc(b1-3)]Gal
How it was run: as §1

[30] = target: Fuc(a1-3)GlcNAc
How it was run: as §1

[31] = target: Fuc(a1-3)[Gal(b1-4)]GlcNAc
How it was run: as §1

[32] = target: Fuc(a1-3)[Gal(b1-4)]GlcNAc(b1-4)Gal(b1-4)[Fuc(a1-3)]GlcNAc
How it was run: as §1

[33] = target: Fuc(a1-3)[Gal(b1-4)]GlcNAc(b1-4)Gal(b1-4)[Fuc(a1-3)]GlcNAc(b1-4)Gal(b1-4)[Fuc(a1-3)]GlcNAc
How it was run: as §1

[34] = target: Fuc(a1-3)[Gal3S(b1-4)]GlcNAc
How it was run: as §1

[35] = target: Fuc(a1-3)[GalNAc(b1-4)]GlcNAc
How it was run: as §1

[36] = target: Fuc(a1-4)GlcNAc
How it was run: as §1

[37] = target: Fuc(b1-3)GlcNAc
How it was run: as §1

B1: F17eG (Escherichia coli), Q9RH92 (protein)
chain: MTNFYKVFLAVFILVCCNISHAAVSFIGSTENDVGPSQSSYSRTHAMDNLPFVYNTGYNIGYQNANVWRISGGFCVGLDGKVDLPVVGSLDGQSIYGLTEEVGLLIWMGDTNYSRGTAMSGNSWENVFSGWCVGNYVSTQGLSVHVRPVILKRNSSAQYSVQKTSIGSIRMRPYNGSSAGSVQTTVNFSLNPFTLNDTVTSCRLLTPSAVNVSLAAISAGQLPSSGDEVVAGTTSLKLQCDAGVTVWATLTDATTPSNRSDILTLTGASTATGVGLRIYKNTDSTPLKFGPDSPVKGNENQWQLSTGTETSPSVRLYVKYVNTGEGINPGTVNGISTFTFSYQ
- glycan array binding signal (z-score) [1]: -0.293
- glycan array binding signal (z-score) [2]: -0.013
- glycan array binding signal (z-score) [3]: -0.314
- glycan array binding signal (z-score) [4]: -0.314
- glycan array binding signal (z-score) [5]: -0.298
- glycan array binding signal (z-score) [6]: -0.285
- glycan array binding signal (z-score) [7]: -0.263
- glycan array binding signal (z-score) [8]: -0.314
- glycan array binding signal (z-score) [9]: -0.315
- glycan array binding signal (z-score) [10]: -0.283
- glycan array binding signal (z-score) [11]: -0.286
- glycan array binding signal (z-score) [12]: -0.298
- glycan array binding signal (z-score) [13]: -0.314
- glycan array binding signal (z-score) [14]: -0.288
- glycan array binding signal (z-score) [15]: -0.31
- glycan array binding signal (z-score) [16]: -0.176
- glycan array binding signal (z-score) [17]: -0.314
- glycan array binding signal (z-score) [18]: -0.312
- glycan array binding signal (z-score) [19]: -0.255
- glycan array binding signal (z-score) [20]: -0.189
- glycan array binding signal (z-score) [21]: -0.26
- glycan array binding signal (z-score) [22]: -0.303
- glycan array binding signal (z-score) [23]: -0.294
- glycan array binding signal (z-score) [24]: -0.254
- glycan array binding signal (z-score) [25]: -0.277
- glycan array binding signal (z-score) [26]: -0.282
- glycan array binding signal (z-score) [27]: -0.3
- glycan array binding signal (z-score) [28]: -0.312
- glycan array binding signal (z-score) [29]: -0.313
- glycan array binding signal (z-score) [30]: -0.311
- glycan array binding signal (z-score) [31]: -0.305
- glycan array binding signal (z-score) [32]: -0.095
- glycan array binding signal (z-score) [33]: -0.314
- glycan array binding signal (z-score) [34]: -0.147
- glycan array binding signal (z-score) [35]: -0.309
- glycan array binding signal (z-score) [36]: -0.312
- glycan array binding signal (z-score) [37]: -0.315
